Measured values from the supplement of paper PMC8728848.
This is one part of the list.

Tests used:
Test in all cases: glycan array binding signal (z-score within array); higher = stronger binding
Settings in all cases: glycan notation: IUPAC condensed, linker removed
Neu5Ac(a2-8)Neu5Ac = target: Neu5Ac(a2-8)Neu5Ac
Outline: (§1)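 The binding signal is a Z-score computed within each array. Data were drawn from 3228 arrays in the Consortium for Functional Glycomics database, restricted to those with a known protein sequence. Scores were averaged over arrays of the same protein sequence at different concentrations or buffers, and over linkers, and negative values can be taken as non-binding.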

[1] = target: Neu5Ac(a2-8)Neu5Ac(a2-3)Gal(b1-3)GalNAc(b1-4)[Neu5Ac(a2-3)]Gal(b1-4)Glc
Outline: as §1

[2] = target: Neu5Ac(a2-8)Neu5Ac(a2-3)Gal(b1-3)GalNAc(b1-4)[Neu5Ac(a2-8)Neu5Ac(a2-3)]Gal(b1-4)Glc
Outline: as §1

[3] = target: Neu5Ac(a2-8)Neu5Ac(a2-3)Gal(b1-4)Glc
Outline: as §1

[4] = target: Neu5Ac(a2-8)Neu5Ac(a2-3)Gal(b1-4)GlcNAc
Outline: as §1

[5] = target: Neu5Ac(a2-8)Neu5Ac(a2-3)[Gal(b1-3)GalNAc(b1-4)]Gal(b1-4)Glc
Outline: as §1

[6] = target: Neu5Ac(a2-8)Neu5Ac(a2-3)[GalNAc(b1-4)]Gal(b1-4)Glc
Outline: as §1

[7] = target: Neu5Ac(a2-8)Neu5Ac(a2-8)Neu5Ac
Outline: as §1

[8] = target: Neu5Ac(a2-8)Neu5Ac(a2-8)Neu5Ac(a2-3)Gal(b1-4)Glc
Outline: as §1

[9] = target: Neu5Ac(a2-8)Neu5Ac(a2-8)Neu5Ac(a2-3)[Gal(b1-3)GalNAc(b1-4)]Gal(b1-4)Glc
Outline: as §1

[10] = target: Neu5Ac(a2-8)Neu5Ac(a2-8)Neu5Ac(a2-3)[GalNAc(b1-4)]Gal(b1-4)Glc
Outline: as §1

[11] = target: Neu5Ac(a2-8)Neu5Ac(a2-8)Neu5Ac(a2-8)Neu5Ac(a2-3)[GalNAc(b1-4)]Gal(b1-4)Glc
Outline: as §1

[12] = target: Neu5Ac(a2-8)Neu5Gc(a2-3)Gal(b1-4)GlcNAc
Outline: as §1

[13] = target: Neu5Ac(b2-6)Gal(b1-4)GlcNAc
Outline: as §1

Neu5Ac(b2-6)GalNAc = target: Neu5Ac(b2-6)GalNAc
Outline: as §1

[14] = target: Neu5Ac9Ac(a2-3)Gal(b1-3)GlcNAc
Outline: as §1

[15] = target: Neu5Ac9Ac(a2-3)Gal(b1-4)GlcNAc
Outline: as §1

[16] = target: Neu5Ac9Ac(a2-6)Gal(b1-4)GlcNAc
Outline: as §1

[17] = target: Neu5Gc(a2-3)Gal(b1-3)GlcNAc
Outline: as §1

[18] = target: Neu5Gc(a2-3)Gal(b1-3)[Fuc(a1-4)]GlcNAc
Outline: as §1

Neu5Gc(a2-3)Gal(b1-4)Glc = target: Neu5Gc(a2-3)Gal(b1-4)Glc
Outline: as §1

[19] = target: Neu5Gc(a2-3)Gal(b1-4)GlcNAc
Outline: as §1

[20] = target: Neu5Gc(a2-3)Gal(b1-4)GlcNAc(b1-3)Gal(b1-4)GlcNAc(b1-2)Man(a1-3)[Neu5Gc(a2-3)Gal(b1-4)GlcNAc(b1-3)Gal(b1-4)GlcNAc(b1-2)Man(a1-6)]Man(b1-4)GlcNAc(b1-4)GlcNAc
Outline: as §1

[21] = target: Neu5Gc(a2-3)Gal(b1-4)[Fuc(a1-3)]GlcNAc
Outline: as §1

[22] = target: Neu5Gc(a2-6)Gal(b1-4)GlcNAc
Outline: as §1

Neu5Gc(a2-6)GalNAc = target: Neu5Gc(a2-6)GalNAc
Outline: as §1

[23] = target: Neu5Gc(a2-8)Neu5Ac(a2-3)Gal(b1-4)GlcNAc
Outline: as §1

[24] = target: Neu5Gc(a2-8)Neu5Gc(a2-3)Gal(b1-4)GlcNAc
Outline: as §1

[25] = target: Neu5Gc(a2-8)Neu5Gc(a2-3)Gal(b1-4)GlcNAc(b1-3)Gal(b1-4)GlcNAc
Outline: as §1

[26] = target: Neu5Gc(a2-8)Neu5Gc(a2-6)Gal(b1-4)GlcNAc
Outline: as §1

[27] = target: Neu5Gc(b2-6)Gal(b1-4)GlcNAc
Outline: as §1

B1: Als3-N (Candida albicans) (protein)
chain: KTITGVFNSFNSLTWSNAATYNYKGPGTPTWNAVLGWSLDGTSASPGDTFTLNMPCVFKFTTSQTSVDLTAHGVKYATCQFQAGEEFMTFSTLTCTVSNTLTPSIKALGTVTLPLAFNVGGTGSSVDLEDSKCFTAGTNTVTFNDGGKKISINVDFERSNVDPKGYLTDSRVIPSLNKVSTLFVAPQCANGYTSGTMGFANTYGDVQIDCSNIHVGITKGLNDWNYPVSSESFSYTKTCSSNGIFITYKNVPAGYRPFVDAYISATDVNSYTLSYANEYTCAGGYWQRAPFTLRWTGYRNSDAGSNGIVIVATTRTVTDSTTAVTTLPFDPNRDKTKTIEILKPIPTTTITTSYVGVTTSYLTKTAPIGETATVIVDIPYHTTTTVTSKWTGTITSTTTHTNPTDSIDTVIVQVP
- glycan array binding signal (z-score) (Neu5Ac(a2-8)Neu5Ac): -0.221
- glycan array binding signal (z-score) [1]: -0.115
- glycan array binding signal (z-score) [2]: -0.226
- glycan array binding signal (z-score) [3]: -0.344
- glycan array binding signal (z-score) [4]: -0.018
- glycan array binding signal (z-score) [5]: -0.267
- glycan array binding signal (z-score) [6]: -0.228
- glycan array binding signal (z-score) [7]: -0.219
- glycan array binding signal (z-score) [8]: -0.327
- glycan array binding signal (z-score) [9]: 0.319
- glycan array binding signal (z-score) [10]: 0.662
- glycan array binding signal (z-score) [11]: -0.228
- glycan array binding signal (z-score) [12]: -0.32
- glycan array binding signal (z-score) [13]: 1.42
- glycan array binding signal (z-score) (Neu5Ac(b2-6)GalNAc): -0.197
- glycan array binding signal (z-score) [14]: -0.232
- glycan array binding signal (z-score) [15]: -0.353
- glycan array binding signal (z-score) [16]: -0.187
- glycan array binding signal (z-score) [17]: -0.207
- glycan array binding signal (z-score) [18]: -0.341
- glycan array binding signal (z-score) (Neu5Gc(a2-3)Gal(b1-4)Glc): -0.094
- glycan array binding signal (z-score) [19]: -0.284
- glycan array binding signal (z-score) [20]: 0.187
- glycan array binding signal (z-score) [21]: -0.212
- glycan array binding signal (z-score) [22]: -0.286
- glycan array binding signal (z-score) (Neu5Gc(a2-6)GalNAc): -0.152
- glycan array binding signal (z-score) [23]: -0.304
- glycan array binding signal (z-score) [24]: -0.293
- glycan array binding signal (z-score) [25]: -0.24
- glycan array binding signal (z-score) [26]: -0.264
- glycan array binding signal (z-score) [27]: -0.039
